Among all 94,000 compounds or so, about 6,200 (6.6%) were called active. Inconclusive results, whose numbers are uncertain, are shown with a selection of clear calls. Calls follow the shape of the dose curve; as a rule, active = well fitted inhibition curve with a large enough effect; inconclusive = small, poorly fitted or top-dose-only effect; inactive = flat fitted curve, though single readings scatter. Potencies of inconclusive entries are doubtful fits and often do not repeat.
Experiment: Cytotoxic Profiling in HEK 293 Cell Line of Diverse Libraries Using Quantitative High-Throughput Screening; also: nearly all actives have a fitted effect of over 60% in size
Details: HEK 293 viability, ATP luminescence (CellTiter-Glo), 48-72 h; series mostly up to 115 µM
Outline: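 HEK 293 cells at 250 cells/well were exposed to compounds by pintool transfer for 48 or 72 hr at 37 degree Celsius, 5% CO2. Viability was read as ATP-coupled luminescence with CellTiter-Glo after 10 min at room temperature.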
Potency is read from the fitted curve at half-maximal effect; tags tell the direction and shape of the fitted curve.

Question: Which Potency does the source give for O=C1NC2(CCN(Cc3ccccc3)CC2)COc2ccccc21 here?
Answer: inconclusive: 50.1 µM [inhibitor, full curve, poor fit]

Question: With CCN(Cc1ccncc1)Cc1cn(-c2ccccc2)nn1 as the molecule, how does the Potency read?
Answer: inconclusive: 79.4 µM [inhibitor, partial curve, poor fit]

Question: With COc1ccc(NC(=O)Cn2c(-c3ccc(Cl)cc3)nc(C)c(CCO)c2=O)cc1 as the molecule, how does the Potency read?
Answer: inconclusive: 44.7 µM [inhibitor, partial curve]

Question: With Cc1ccc(-c2cc(C(=O)N3CCN(Cc4ccccc4)CC3)c3cnn(C)c3n2)c(C)c1 as the molecule, how does the Potency read?
Answer: inconclusive: 50.1 µM [inhibitor, partial curve, poor fit]

Question: With CC1=C[C@@H](CNC(C)C)[C@H](C(C)C)C[C@H]1Cc1nnc(C(C)(C)C)o1 as the molecule, how does the Potency read?
Answer: inactive

Question: Which Potency does the source give for O=C(c1ccc2cc[nH]c2c1)N1CCN(C(=O)c2nnn3c2COC(c2ccc(Cl)cc2)C3)CC1 (stereo unspecified) here?
Answer: inconclusive: 39.8 µM [inhibitor, partial curve]

Question: For COc1ccc(C(=O)NCCn2cccc2-c2nc(-c3ccccc3)no2)cc1, which Potency is on record?
Answer: inactive

Question: With C[C@H]1[C@@H]2[C@@H](O)C([C@H](C)C(=O)N(C)CCC#N)CC[C@@]2(C)CC[C@@H]1NC(=O)c1ccncc1 (stereo partly specified) as the molecule, how does the Potency read?
Answer: inactive

Question: Which Potency does the source give for O=C([C@@H]1C[C@H](Oc2ccccc2)CN1C(=O)c1cc2ccccc2[nH]1)N1CCCC1 here?
Answer: inactive

Question: With CN(C)C[C@@H]1CN(S(C)(=O)=O)C[C@H]1NC(=O)CC1=CCCCC1 as the molecule, how does the Potency read?
Answer: inactive

Question: For O=C(C1CCCC1)N1CC2(CCN(Cc3cccnc3)CC2)Cc2ccccc21, which Potency is on record?
Answer: inconclusive: 50.1 µM [inhibitor, partial curve, poor fit]

Question: For O=C1NC2(CN(CC3CCCCC3)C2)Oc2ccccc21, which Potency is on record?
Answer: inconclusive: 112 µM [inhibitor, partial curve]

Question: For CC1(NC(=O)C2CC2)CN(c2ccc(OC(F)(F)F)cc2)C1, which Potency is on record?
Answer: inconclusive: 79.4 µM [inhibitor, partial curve]

Question: With CC(C)CN1CCN(C2CCOC3(CCN(S(=O)(=O)Cc4ccccc4)CC3)C2)CC1 (stereo unspecified) as the molecule, how does the Potency read?
Answer: inactive

Question: Which Potency does the source give for O=C(NC1CCCN(c2cc(-c3ccc(Cl)cc3)[nH]n2)C1)c1cccnc1 (stereo unspecified) here?
Answer: inconclusive: 44.7 µM [inhibitor, partial curve, poor fit]

Question: With COc1ccc(-c2nnc([C@H]3CCN(S(=O)(=O)Cc4ccccc4)C3)o2)cc1 as the molecule, how does the Potency read?
Answer: inconclusive: 100 µM [inhibitor, partial curve, poor fit]

Question: For Cc1ccc(NC(=O)C2CCN(C(=O)c3ncn4c3COC(c3ccc(F)cc3)C4)CC2)c(C)c1 (stereo unspecified), which Potency is on record?
Answer: inactive

Question: With COc1ccccc1N1CCCc2ncc(C(=O)Nc3ccc4[nH]ccc4c3)cc21 as the molecule, how does the Potency read?
Answer: inconclusive: 70.8 µM [inhibitor, partial curve]

Question: Which Potency does the source give for COc1ccc2c(C)c(C(=O)N(C)Cc3csc(C(C)C)n3)oc2c1 here?
Answer: active: 44.7 µM

Question: With Cc1sc2cc(C(=O)NCc3cccnc3)[nH]c2c1CN1CCCCC1 as the molecule, how does the Potency read?
Answer: inconclusive: 79.4 µM [inhibitor, partial curve, poor fit]

Question: With COc1nc2nc(CCc3ccccc3)n(C)c2cc1-c1cccc(NC(C)=O)c1 as the molecule, how does the Potency read?
Answer: inconclusive: 35.5 µM [inhibitor, partial curve, poor fit]

Question: With COCCCN1CC2(CCN(Cc3ccc4c(c3)CC(C)O4)CC2)CC1=O (stereo unspecified) as the molecule, how does the Potency read?
Answer: inactive

Question: With CC(=O)c1ccc(C(=O)N2CCC3(CC2)OCCCC3O)s1 (stereo unspecified) as the molecule, how does the Potency read?
Answer: inactive

Question: For CC(C)NCC1(COc2ccc(C(F)(F)F)cn2)C[C@@H](O)[C@@H](O)C1 (stereo partly specified), which Potency is on record?
Answer: inactive

Question: For CN(Cc1ccc(-c2ccccc2)cc1)Cc1nccs1, which Potency is on record?
Answer: inconclusive: 20 µM [inhibitor, full curve, poor fit]

Question: Which Potency does the source give for CN(C(=O)Cc1ccc(F)cc1)C1CCc2ccccc21 (stereo unspecified) here?
Answer: inconclusive: 50.1 µM [inhibitor, partial curve, poor fit]

Question: Which Potency does the source give for COc1ccccc1NC(=O)Nc1cccc(-c2ccc(N3CCOCC3)nn2)c1 here?
Answer: inconclusive: 44.7 µM [inhibitor, partial curve, poor fit]

Question: Which Potency does the source give for COc1ccc(-c2nc3cc(C(=O)N4CCCCC4)ccc3o2)cn1 here?
Answer: inactive

Question: Which Potency does the source give for COc1cccc(CNC(=O)c2ccc3nnc(-c4cc(C(F)(F)F)cc(C(F)(F)F)c4)n3c2)c1 here?
Answer: inconclusive: 31.6 µM [inhibitor, full curve, poor fit]

Question: For Cc1ccc(CC(=O)N2CC(c3nnc(-c4ccc(C)cc4)o3)C3(CCOCC3)C2)cc1 (stereo unspecified), which Potency is on record?
Answer: inconclusive: 31.6 µM [inhibitor, full curve]

Question: Which Potency does the source give for CC(C)(C)C(=O)N1CCCC(C(=O)N2CCCC2c2nc3ccncc3[nH]2)C1 (stereo unspecified) here?
Answer: inactive

Question: With Cc1nc(C2CC23CCN(S(=O)(=O)c2cccnc2)CC3)no1 (stereo unspecified) as the molecule, how does the Potency read?
Answer: inactive

Question: With Cc1ccc(NC(=O)N2CC(C(=O)N(C)C)C3(CCOCC3)C2)cc1 (stereo unspecified) as the molecule, how does the Potency read?
Answer: inactive

Question: For CC1C=CC(C)N1c1ncnc2c1CN(C1CCNCC1)C(=O)CN2C (stereo unspecified), which Potency is on record?
Answer: inactive

Question: For O=C(Cc1cccc(Cl)c1)N1CCC2(CC1)COc1ccccc1[S+](=O)([O-])N2, which Potency is on record?
Answer: inconclusive: 50.1 µM [inhibitor, partial curve, poor fit]

Question: With O=C1CCCN1CC(=O)N1CCC(C2CCN(Cc3cccc(F)c3F)CC2)C1 (stereo unspecified) as the molecule, how does the Potency read?
Answer: inactive

Question: With Cc1ccc(Cl)cc1N1CCN(C(=O)CCn2ccn3nc4c(c3c2=O)CCCC4)CC1 as the molecule, how does the Potency read?
Answer: inconclusive: 79.4 µM [inhibitor, single point]

Question: Which Potency does the source give for CC(=O)N1CC2(CCCN(Cc3cccnc3)C2)Cc2ccccc21 (stereo unspecified) here?
Answer: inconclusive: 63.1 µM [inhibitor, partial curve, poor fit]

Question: Which Potency does the source give for COCCN1C[C@H]2COc3ccc(C)cc3[C@H]2N(C(=O)CC(C)(C)C)CCC1=O here?
Answer: inactive

Question: Which Potency does the source give for O=C1c2c(-c3nc(-c4ccsc4)no3)nnn2CCN1Cc1cccc(Cl)c1 here?
Answer: inconclusive: 20 µM [inhibitor, full curve]

Question: For Cc1noc(C)c1S(=O)(=O)N(C)C1CCCc2ccccc21 (stereo unspecified), which Potency is on record?
Answer: inconclusive: 126 µM [inhibitor, single point]

Question: Which Potency does the source give for CC(C)Cc1cc(C(=O)N2CCc3onc(-c4ccccc4F)c3C2)on1 here?
Answer: inconclusive: 50.1 µM [inhibitor, partial curve, poor fit]

Question: For CC(C)c1ccc(CC(=O)N2CCCc3ncc(C(=O)NCCN4CCCC4)cc32)cc1, which Potency is on record?
Answer: inconclusive: 126 µM [inhibitor, single point]

Question: Which Potency does the source give for COCCc1nncn1C1CCN(C(=O)c2ccc(Br)cc2)CC1 here?
Answer: inactive

Question: Which Potency does the source give for COCC1CN(C)CC12CCN(C(=O)NC1CCCCC1)CC2 (stereo unspecified) here?
Answer: inconclusive: 100 µM [inhibitor, single point]

Question: For Cc1ccc(C(=O)N(C)Cc2cccn2C)cc1, which Potency is on record?
Answer: inactive

Question: For O=C(C1CCCC1)N1CCC2(CC1)C(=O)NCN2Cc1ccc(Cl)cc1, which Potency is on record?
Answer: inconclusive: 89.1 µM [inhibitor, single point]

Question: Which Potency does the source give for CC(=O)Nc1cccc(C(=O)N2CCCN(c3cc(-c4ccc(C)c(C)c4)[nH]n3)CC2)c1 here?
Answer: inactive

Question: For CNC(=O)[C@@H]1C[C@H]2CN(Cc3ccc(OC)cc3)C(=O)c3cccc(c32)N1C(=O)c1cccs1, which Potency is on record?
Answer: inconclusive: 39.8 µM [inhibitor, single point]

Question: With CN1CCN(C(=O)c2cc3c(s2)CCN(C(=O)c2ccc(Cl)cc2)C3)CC1 as the molecule, how does the Potency read?
Answer: inconclusive: 44.7 µM [inhibitor, partial curve, poor fit]

Question: For Cc1ccccc1N(C)C1CN(C(=O)c2ccccc2)C1, which Potency is on record?
Answer: inconclusive: 100 µM [inhibitor, partial curve, poor fit]

Question: Which Potency does the source give for O=C(Nc1ccccc1)N1CCCC(C(=O)N2CCC(c3nc4ncccc4[nH]3)CC2)C1 (stereo unspecified) here?
Answer: inactive

Question: With COc1ccc(C(=O)N2CCC(c3noc(COc4ccc(F)cc4)n3)CC2)cn1 as the molecule, how does the Potency read?
Answer: inconclusive: 39.8 µM [inhibitor, partial curve]

Question: Which Potency does the source give for O=C1Nc2ccccc2CN(Cc2ccccc2)C12CCNCC2 here?
Answer: inconclusive: 79.4 µM [inhibitor, partial curve]

Question: With COc1ccc(NC(=O)C(C)(C)Oc2nn(CC3CC3)c3ccc(CN4CCCC4)cc23)cc1 as the molecule, how does the Potency read?
Answer: inconclusive: 79.4 µM [inhibitor, partial curve, poor fit]

Question: Which Potency does the source give for CN(Cc1cccc(C(F)(F)F)c1)Cc1cccc2ccccc12 here?
Answer: inconclusive: 126 µM [inhibitor, single point]

Question: For CC(=O)c1cccc(NC(=O)Cn2ccn3nc(-c4ccc(F)cc4)c(CO)c3c2=O)c1, which Potency is on record?
Answer: inconclusive: 50.1 µM [inhibitor, partial curve, poor fit]

Question: For c1ccc(OCc2noc(-c3ccc(NC4CCSC4)nc3)n2)cc1 (stereo unspecified), which Potency is on record?
Answer: inconclusive: 79.4 µM [inhibitor, partial curve, poor fit]

Question: With Cc1ccncc1C(=O)N1CCC(C(=O)N2CCCCCCNC(=O)CC2)CC1 as the molecule, how does the Potency read?
Answer: inactive

Question: With Cc1ccccc1-c1[nH]nc2ncc(-c3cccnc3)nc12 as the molecule, how does the Potency read?
Answer: inconclusive: 112 µM [inhibitor, partial curve]

Question: Which Potency does the source give for O=C1Nc2ccc(-c3ccc(Cl)cc3)cc2C(=O)N2CCN(C(=O)c3cccnc3)C[C@H]12 here?
Answer: active: 44.7 µM

Question: With O=C(c1cccs1)N1CCC2(CC1)NCCc1c2[nH]c2ccccc12 as the molecule, how does the Potency read?
Answer: inconclusive: 22.4 µM [inhibitor, partial curve, poor fit]

Question: For Cc1noc(C)c1S(=O)(=O)N1CCC2(CC1)CC(N(C)Cc1ccccc1)CCO2 (stereo unspecified), which Potency is on record?
Answer: inactive

Question: For COc1ccccc1-c1cc2c(ccn2C)c(C(=O)NCCc2ccccn2)n1, which Potency is on record?
Answer: inconclusive: 100 µM [inhibitor, partial curve]

Question: For O=C(NCc1ccc(C(F)(F)F)cc1)c1cc(Br)cn2ccnc12, which Potency is on record?
Answer: inconclusive: 50.1 µM [inhibitor, partial curve, poor fit]

Question: Which Potency does the source give for O=C(NC1CCN(C(=O)c2ccc(-c3cccs3)cc2)CC1)C1CC1 here?
Answer: inconclusive: 89.1 µM [inhibitor, single point]

Source: PubChem BioAssay AID1345083 (National Center for Advancing Translational Sciences (NCATS), 2018)
